The campaign covered roughly 130,000 compounds. About 550 (0.42%) were called active. Inconclusive means that the source gave no clear call. Such entries were picked first, then a sample of the others. Calls follow the shape of the dose curve; as a rule, active = well fitted inhibition curve with a large enough effect; inconclusive = small, poorly fitted or top-dose-only effect, or effect the other way; inactive = flat fitted curve, though single readings scatter. No potency is given beside an inconclusive call; the fits are too rough.
Assay: qHTS Assay for Inhibitors of the ERK Signaling Pathway using a Homogeneous Screening Assay; Stimulation with EGF; also: nearly all actives have a fitted effect of over 55% in size
Conditions: HEK293-V1b, EGF-stimulated phospho-ERK AlphaScreen
Method in brief: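 Readout: AlphaScreen signal for phosphorylated ERK in lysed HEK293 cells stably expressing V1b. Stimulus 25 nM EGF, 5 min, following 30 min compound exposure. Data scaled to DMSO basal and full EGF activation.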
Potency is read from the fitted curve at half-maximal effect; tags tell the direction and shape of the fitted curve.

Row | SMILES | Potency
1 | CC1(C)CC(/C=C/c2ccccc2)=Nc2ccccc2N1 | inconclusive [inhibitor, single point]
2 | COc1ccccc1CNC(=O)c1ccc(-c2ccccc2Cl)o1 | inconclusive [inhibitor, partial curve]
3 | O=C(Nc1ccc(Cl)cc1)N1CCCN(c2ccc(C(F)(F)F)cc2[N+](=O)[O-])CC1 | inconclusive [inhibitor, partial curve]
4 | Cc1nc2ccc(S(=O)(=O)Nc3cccc(-c4nc5cccnc5s4)c3)cc2s1 | active: 25.1 µM
5 | Cc1cc(N2CCN(C)CC2)nc2ccc(NC(=S)NCCCN3CCc4ccccc4C3)cc12 | inconclusive [inhibitor, partial curve]
6 | O=[N+]([O-])c1ccc(O)c(Nc2ncnc3ccc(Br)cc23)c1 | active: 25.1 µM
7 | CC(=O)c1cccc(NC(=O)COc2cc3oc(=O)c(CC(C)O)c(C)c3cc2Cl)c1 (stereo not given) | inconclusive [inhibitor, single point]
8 | O=c1cc(-c2ccc(O)c(O)c2)oc2cc(O)cc(O)c12 | inactive
9 | Cc1cccc2cc(C#N)c(NCc3ccccc3)nc12 | inconclusive [activator, single point]
10 | Fc1cccc(-c2nnn3c2nc(Cl)c2ccccc23)c1 | inconclusive [activator, single point]
11 | CCOC(=O)C1(Cc2ccccc2)CCN(Cc2csc(C(C)=O)c2)CC1 | inconclusive [inhibitor, single point]
12 | O=C(CSc1nc(-c2ccccc2)c(-c2ccccc2)o1)NC1CCS(=O)(=O)C1 (stereo not given) | inconclusive [inhibitor, single point]
13 | Cc1cc(C)c(S(C)(=O)=O)c(=O)[nH]1 | inconclusive [inhibitor, single point]
14 | O=C1NC(=S)S/C1=C\c1ccc(SCc2ccccc2)o1 | inconclusive [inhibitor, partial curve, poor fit]
15 | Cc1nc(C2CCC3C4CCC5=CC(=O)CC[C@]5(C)C4CC[C@]23C)cs1 (stereo not given in full) | inconclusive [inhibitor, single point]
16 | CN(C)CCCN(C(=O)CCc1ccccc1)c1nc2ccc(Br)cc2s1 | inconclusive [inhibitor, single point]
17 | CCC(=O)N1CCN(c2ccc(NC(=O)c3ccc([N+](=O)[O-])o3)cc2)CC1 | inactive
18 | CSc1ccccc1NC(=O)Nc1ccccc1Cl | inactive
19 | CN1CCc2cccc3c2[C@H]1Cc1ccc(O)c(O)c1-3 | inconclusive [inhibitor, full curve, poor fit]
20 | CN(c1ccccc1)S(=O)(=O)c1cccc(C(=O)NCCc2ccc(O)c(O)c2)c1 | inconclusive [inhibitor, single point]
21 | Nc1ncnc2c1nc(SCCO)n2Cc1ccccc1 | inconclusive [inhibitor, single point]
22 | Cc1nnc(SCC(=O)c2ccccc2F)n1Cc1ccccc1 | inactive
23 | CC(C)C(=O)NC(=S)/C=C1/N(C)c2ccccc2C1(C)C | inconclusive [inhibitor, single point]

Row | SMILES | Potency
24 | O=[N+]([O-])c1cc(S(=O)(=O)Nc2cccc(Cl)c2)ccc1N/N=C/c1ccc(N2CCOCC2)cc1 | inconclusive [inhibitor, full curve]
25 | COC(=O)c1cccc(C23CC4(C2)[C@H](CN(Cc2cccnc2)[C@@H]4c2ccccc2)C3c2ccccc2)c1 (stereo not given in full) | inconclusive [inhibitor, partial curve, poor fit]
26 | CNC(CC(=O)O)C(=O)O (stereo not given) | inactive
27 | c1cnc2c(c1)ccc1cccnc12 | inactive
28 | CC[n+]1ccccc1/C=C/c1ccc(N(C)C)cc1 | inactive
29 | COC(=O)C1C2CC3c4[nH]c5cc(OC)ccc5c4CCN3CC2CC(OC(=O)c2cc(OC)c(OC)c(OC)c2)C1OC (stereo not given) | inactive
30 | COc1ccc2nc3ccccc3nc2c1N | active: 28.2 µM
31 | COc1ccccc1N=Nc1nc(-c2ccccc2)c(-c2ccccc2)[nH]1 | inconclusive [inhibitor, partial curve]
32 | O=C(C1CC1)N1CCc2sccc2C1c1ccc(Cl)cc1 (stereo not given) | inconclusive [inhibitor, partial curve, poor fit]
33 | CCOc1cccc(OCCOc2ccccc2[N+](=O)[O-])c1 | inconclusive [inhibitor, partial curve]
34 | CCOC(=O)N1CCc2c(sc(NC(=O)CN3CCOCC3)c2C(=O)Nc2ccccc2)C1 | active: 35.5 µM
35 | Cc1cc(C)nc(NC(=O)c2cc(-c3ccc(C)s3)nc3ccccc23)c1 | inconclusive [activator, partial curve]
36 | CC[C@H]1NC(=O)c2cc(S(N)(=O)=O)c(Cl)cc2N1 | inactive
37 | C/C(=N\Nc1nc2ccccc2[nH]1)c1ccc(N2CCOCC2)cc1 | inconclusive [inhibitor, single point]
38 | CCOc1cc(/C=C2\C(=O)ON=C2C)ccc1OCc1ccccc1 | inconclusive [inhibitor, single point]
39 | Cc1csc(NC(=O)CCc2c(C)nc3cc(-c4cccc(F)c4)nn3c2C)n1 | inconclusive [inhibitor, single point]
40 | COc1ccc(-c2cc(-c3ccccc3)c(C#N)c(=S)[nH]2)cc1 | inactive
41 | CCC1CCC(c2nnc(-c3ccc([N+](=O)[O-])cc3)o2)CC1 (stereo not given) | inconclusive [inhibitor, partial curve]
42 | COCC(C)n1c(SCC(=O)c2cc(C)n(C)c2C)nc2ccccc2c1=O (stereo not given) | inconclusive [inhibitor, single point]
43 | COc1ccc(-c2csc(NC(=O)c3ccccc3NS(=O)(=O)c3ccc(F)c(F)c3)n2)cc1 | inactive
44 | COc1cc2c(cc1OC)[C@H](C)N(CC1C(=O)O[C@@H]3C[C@@]4(C)CCC[C@H](C)[C@@]45OC5[C@H]13)CC2 (stereo not given in full) | inactive
45 | c1ccc2c3c([nH]c2c1)[C@@H]1[C@H]2CC[C@H]([C@H]4CCCN[C@H]42)N1CC3 | inactive
